Test results as given in patent publication US9763922B2 (priority 2014, dated 2017).

test system: MYC; test: cells; details: Homo sapiens, MV4-11, 4 h, read-out: Myc IC50 (μM)

CNC(=O)N1CCc2c(c(N3CCCc4cc(-c5ccc(NC(C)=O)nc5)c(C(F)F)cc43)nn2C2CCOCC2)C1 [Example 252, 3-[6-(6-acetamido-3-pyridyl)-7-(difluoromethyl)-3,4-dihydro-2H-quinolin-1-yl]-N-methyl-1-tetrahydropyran-4-yl-6,7-dihydro-4H-pyrazolo[4,3-c]pyridine-5-carboxamide] and CNC(=O)N1CCc2c(c(N3CCCc4cc(-c5cnc(C6CC6)s5)c(C(F)F)cc43)nn2C2CCOCC2)C1 [Example 361, 3-[6-(2-cyclopropylthiazol-5-yl)-7-(difluoromethyl)-3,4-dihydro-2H-quinolin-1-yl]-N-methyl-1-tetrahydropyran-4-yl-6,7-dihydro-4H-pyrazolo[4,3-c]pyridine-5-carboxamide] are within 1.5-fold of each other in IC50: 0.005 µM for the first, 0.007 µM for the second.

First: CC(=O)N1CCc2c(c(Nc3cccc(C)c3)nn2C(C)c2ccccc2)C1 [Example 197, (S,S)-1-[3-[3-methyl-5-(1-methylpyrazol-4-yl)indolin-1-yl]-1-tetrahydrofuran-3-yl-6,7-dihydro-4H-pyrazolo[4,3-c]pyridin-5-yl]ethanone]
Second: CC(=O)N1CCc2c(c(Nc3cccc(C(=O)NC(C)C)c3)nn2CC2CC2)C1 [Example 218, 1-[3-[6-(difluoromethyl)-5-(1-methylpyrazol-4-yl)indolin-1-yl]-1-(oxetan-3-yl)-6,7-dihydro-4H-pyrazolo[4,3-c]pyridin-5-yl]ethanone]
The IC50 of the first is 2.3-fold higher: 1.17 µM for the first, 0.5 µM for the second.

Compared with CC(=O)N1CCc2c(c(N3CCCc4cc(-c5cnn(C)c5)c(C#N)cc43)nn2C2COC2)C1 [Example 127, 1-[5-acetyl-1-(oxetan-3-yl)-6,7-dihydro-4H-pyrazolo[4,3-c]pyridin-3-yl]-6-(1-methylpyrazol-4-yl)-3,4-dihydro-2H-quinoline-7-carbonitrile], CC(=O)N1CCc2c(c(N3CCCc4cc(-c5cnn(C)c5)c(F)cc43)nn2C2CCOC2)C1 (stereo not shown) [Example 142, 1-[3-[7-fluoro-6-(1-methylpyrazol-4-yl)-3,4-dihydro-2H-quinolin-1-yl]-1-tetrahydrofuran-3-yl-6,7-dihydro-4H-pyrazolo[4,3-c]pyridin-5-yl]ethanone] is 1.9-fold higher in IC50: 0.693 µM for the first, 1.35 µM for the second.

Compared with CC(=O)N1CCc2c(c(N3CCCc4cc(-c5cnn(C)c5)c(C(F)F)cc43)nn2[C@H]2CCCOCC2)C1 (single isomer, unassigned) [Example 373], CC(=O)N1CCc2c(c(N3CCCc4cc(-c5cnn(C)c5)c(C(F)F)cc43)nn2C2CCN(C)CC2)C1 [Example 347, 1-[3-[7-(difluoromethyl)-6-(1-methylpyrazol-4-yl)-3,4-dihydro-2H-quinolin-1-yl]-1-(1-methyl-4-piperidyl)-6,7-dihydro-4H-pyrazolo[4,3-c]pyridin-5-yl]ethanone] is higher in IC50: 0.023 µM for the first, over 1 µM for the second. The first is the more potent here.

Going from CC(=O)N1CCc2c(c(N3CCCc4cc(-c5cn(C)nc5C#N)ccc43)nn2[C@H]2CCOC2)C1 [Example 52, 4-[1-[5-acetyl-1-[(3S)-tetrahydrofuran-3-yl]-6,7-dihydro-4H-pyrazolo[4,3-c]pyridin-3-yl]-3,4-dihydro-2H-quinolin-6-yl]-1-methyl-pyrazole-3-carbonitrile] to CC(=O)N1CCc2c(c(N3CCc4cc(-c5cnn(C)c5C)ccc43)nn2C2CCOC2)C1 (stereo not shown) [Example 184, 1-[3-[5-(1,5-dimethylpyrazol-4-yl)indolin-1-yl]-1-tetrahydrofuran-3-yl-6,7-dihydro-4H-pyrazolo[4,3-c]pyridin-5-yl]ethanone], the IC50 falls from 3.28 µM to 0.982 µM (3.3-fold).

Going from CC(=O)N1CCc2c(c(N3C[C@H](C)N(C)c4cc(-c5cnn(C)c5)c(C(F)(F)F)cc43)nn2C2CCOCC2)C1 [Example 273, (S)-1-[3-[3,4-dimethyl-6-(1-methylpyrazol-4-yl)-7-(trifluoromethyl)-2,3-dihydroquinoxalin-1-yl]-1-tetrahydropyran-4-yl-6,7-dihydro-4H-pyrazolo[4,3-c]pyridin-5-yl]ethanone] to CNC(=O)N1CCc2c(c(N3CCCc4cc(-c5cnn(C)c5)c(C(F)(F)F)cc43)nn2C2CCOCC2)C1 [Example 254, N-methyl-3-[6-(1-methylpyrazol-4-yl)-7-(trifluoromethyl)-3,4-dihydro-2H-quinolin-1-yl]-1-tetrahydropyran-4-yl-6,7-dihydro-4H-pyrazolo[4,3-c]pyridine-5-carboxamide], the IC50 falls from 0.027 µM to 0.004 µM (6.8-fold).

CNC(=O)N1CCc2[nH]nc(N3CCCc4cc(-c5cnn(C)c5)c(C(F)F)cc43)c2C1 [Example 332, 3-[7-(difluoromethyl)-6-(1-methylpyrazol-4-yl)-3,4-dihydro-2H-quinolin-1-yl]-N-methyl-1,4,6,7-tetrahydropyrazolo[4,3-c]pyridine-5-carboxamide] and CC(=O)N1CCc2[nH]nc(N3CCCc4cc(-c5cnn(C)c5)c(C(F)F)cc43)c2C1 [Example 333, 1-[3-[7-(difluoromethyl)-6-(1-methylpyrazol-4-yl)-3,4-dihydro-2H-quinolin-1-yl]-1,4,6,7-tetrahydropyrazolo[4,3-c]pyridin-5-yl]ethanone] are within 1.5-fold of each other in IC50: 0.062 µM for the first, 0.063 µM for the second.

First: CC(=O)N1CCc2c(c(N(C)c3ccc(-c4cnn(C)c4)cc3)nn2C)C1 [Example 228, 1-[1-methyl-3-[N-methyl-4-(1-methylpyrazol-4-yl)anilino]-6,7-dihydro-4H-pyrazolo[4,3-c]pyridin-5-yl]ethanone]
Second: CC(=O)N1CCc2c(c(N3CCCc4cc(-c5cnn(C)c5)ccc43)nn2C)C1 [Example 65, 1-[1-methyl-3-[6-(1-methylpyrazol-4-yl)-3,4-dihydro-2H-quinolin-1-yl]-6,7-dihydro-4H-pyrazolo[4,3-c]pyridin-5-yl]ethanone]
The IC50 of the first is higher: over 4 µM for the first, 0.401 µM for the second. The second is the more potent here.

CC(=O)N1CCc2c(c(Nc3ccc(-c4cnn(C)c4)cc3Cl)nn2C2CCOC2)C1 (stereo not shown) [Example 293, 1-[3-[2-chloro-4-(1-methylpyrazol-4-yl)anilino]-1-tetrahydrofuran-3-yl-6,7-dihydro-4H-pyrazolo[4,3-c]pyridin-5-yl]ethanone] and CC(=O)N1CCc2c(c(Nc3ccc(-c4cnn(C)c4C)cc3F)nn2[C@H]2CCOC2)C1 [Example 284, (S)-1-[3-[4-(1,5-dimethylpyrazol-4-yl)-2-fluoro-anilino]-1-tetrahydrofuran-3-yl-6,7-dihydro-4H-pyrazolo[4,3-c]pyridin-5-yl]ethanone] are within 1.5-fold of each other in IC50: 0.35 µM for the first, 0.36 µM for the second.

Compared with CC(=O)N1CCc2c(c(N3CCNc4cc(-c5cnn(C)c5)ccc43)nn2[C@H]2CCOC2)C1 [Example 93, 1-[3-[6-(1-methylpyrazol-4-yl)-3,4-dihydro-2H-quinoxalin-1-yl]-1-[(3S)-tetrahydrofuran-3-yl]-6,7-dihydro-4H-pyrazolo[4,3-c]pyridin-5-yl]ethanone], CC(=O)N1CCc2c(c(N3C[C@@H](CC(F)F)Cc4cc(-c5cnn(C)c5)ccc43)nn2[C@H]2CCOC2)C1 [Example 83, (S,R)-1-[3-[3-(2,2-difluoroethyl)-6-(1-methylpyrazol-4-yl)-3,4-dihydro-2H-quinolin-1-yl]-1-tetrahydrofuran-3-yl-6,7-dihydro-4H-pyrazolo[4,3-c]pyridin-5-yl]ethanone] is 1.5-fold lower in IC50: 1.25 µM for the first, 0.83 µM for the second.

CNC(=O)N1CCc2c(c(N3CCCc4cc(-c5cnn(C)c5C)c(C(F)F)cc43)nn2C2CCS(=O)(=O)CC2)C1 [Example 324, 3-[7-(difluoromethyl)-6-(1,5-dimethylpyrazol-4-yl)-3,4-dihydro-2H-quinolin-1-yl]-1-(1,1-dioxothian-4-yl)-N-methyl-6,7-dihydro-4H-pyrazolo[4,3-c]pyridine-5-carboxamide] and CC(=O)N1CCc2c(c(N3CCCc4cc(-c5cnn(C)c5)c(C(F)F)cc43)nn2C2CCN(CC(F)F)CC2)C1 [Example 345, 1-[1-[1-(2,2-difluoroethyl)-4-piperidyl]-3-[7-(difluoromethyl)-6-(1-methylpyrazol-4-yl)-3,4-dihydro-2H-quinolin-1-yl]-6,7-dihydro-4H-pyrazolo[4,3-c]pyridin-5-yl]ethanone] are within 1.5-fold of each other in IC50: 0.011 µM for the first, 0.013 µM for the second.

Compared with CC(=O)N1CCc2c(c(N3CCOc4cc(-c5cnn(C)c5)c(C(F)F)cc43)nn2C2CCOCC2)C1 [Example 278, 1-[3-[2,3-difluoro-4-(1-methylpyrazol-4-yl)anilino]-1-tetrahydrofuran-3-yl-6,7-dihydro-4H-pyrazolo[4,3-c]pyridin-5-yl]ethanone], CC(=O)N1CCc2c(c(N3CCCc4cc(-c5cnn(C)c5)c(F)cc43)nn2[C@H]2CCOC2)C1 [Example 143, 1-[3-[7-fluoro-6-(1-methylpyrazol-4-yl)-3,4-dihydro-2H-quinolin-1-yl]-1-[(3S)-tetrahydrofuran-3-yl]-6,7-dihydro-4H-pyrazolo[4,3-c]pyridin-5-yl]ethanone] is 5.5-fold higher in IC50: 0.029 µM for the first, 0.16 µM for the second. The first is the more potent here.

First: CC(=O)N1CCc2c(c(Nc3ccc(-c4cn(C)nc4C(F)F)cc3F)nn2[C@H]2CCOC2)C1 [Example 306, (S)-1-[3-[4-[3-(difluoromethyl)-1-methyl-pyrazol-4-yl]-2-fluoro-anilino]-1-tetrahydrofuran-3-yl-6,7-dihydro-4H-pyrazolo[4,3-c]pyridin-5-yl]ethanone]
Second: CNC(=O)N1CCc2c(c(N3CCCc4cc(-c5cnn(C)c5)ccc43)nn2[C@H]2CCOC2)C1 [Example 156, N-methyl-3-[6-(1-methylpyrazol-4-yl)-3,4-dihydro-2H-quinolin-1-yl]-1-[(3S)-tetrahydrofuran-3-yl]-6,7-dihydro-4H-pyrazolo[4,3-c]pyridine-5-carboxamide]
The IC50 of the first is 3.4-fold lower: 0.21 µM for the first, 0.706 µM for the second. The first is the more potent here.

Going from CNC(=O)N1CCc2c(c(N3CCCc4cc(-c5cnn(C)c5)c(C(F)F)cc43)nn2-c2ccncc2)C1 [Example 342, 3-[7-(difluoromethyl)-6-(1-methylpyrazol-4-yl)-3,4-dihydro-2H-quinolin-1-yl]-N-methyl-1-(4-pyridyl)-6,7-dihydro-4H-pyrazolo[4,3-c]pyridine-5-carboxamide] to CC(=O)N1CCc2c(c(N3CC(C)Cc4cc(-c5cnn(C)c5)c(C#N)cc43)nn2[C@H]2CCOC2)C1 (stereo partly drawn) [Example 84, 1-(5-acetyl-1-((S)-tetrahydrofuran-3-yl)-6,7-dihydro-4H-pyrazolo[4,3-c]pyridin-3-yl)-3-methyl-6-(1-methylpyrazol-4-yl)-3,4-dihydro-2H-quinoline-7-carbonitrile], the IC50 rises from 0.023 µM to 0.088 µM (3.8-fold).
